Where “and” joins values, the source holds several entries; their conditions need not be identical. Equal entries are not always repeated.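 Exposure lasted 48 hours, with cells grown in 96-well plates and compounds tested at five concentrations. GI50 is the concentration that inhibits growth by half. TGI: total growth inhibition.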
test system: NCI-H322M lung; assay: DTP human tumour cell line panel, 48 h

Row | SMILES | TGI | GI50 [µM]
1 | CSc1nnc(COc2ccc(Cl)cc2)o1 | > 100 µM | 
2 | O=c1oc2ccc(I)cc2c(=O)n1-c1ccc(Cl)cc1F | 17.4 µM | 0.625
3 | COc1ccc(CC2COc3cc(O)cc(O)c3C2=O)cc1O (stereo unspecified) | > 100 µM | 
4 | O=C1NCN(c2ccccc2)C12CCN(CCCN1CCN(CCOC(c3ccc(F)cc3)c3ccc(F)cc3)CC1)CC2 | 4.49 µM | 
5 | O=[N+]([O-])c1ccc2c(c1)C1=NN(c3ccccc3)C(c3ccccc3Br)C1CCC2 (stereo unspecified) | > 50 µM | 
6 | CC(NC(=O)N(C)C)NC(=O)N(C)C | > 10 µM | 
7 | COc1nc(C#CC(C)(C)C)nc(OC)n1 | 99.2 µM | 
8 | CN(C)CCNC(=O)Cn1ccc(=O)c2c([N+](=O)[O-])cccc21 | > 100 µM | 
9 | CC(=O)O[C@H]1CCc2c(cc(N)c3c2C(=O)C[C@]2(C)C([C@H](C)CCCC(C)C)CCC32C)C1(C)C (stereo partly specified) | > 100 µM | 
10 | C[C@H]1CCCC(O)C(O)[C@@H]2C[C@H](O[Si](C)(C)C(C)(C)C)C[C@H]2[C@H](O[Si](C)(C)C(C)(C)C)C(O)C(O)C(=O)O1 (stereo partly specified) | > 100 µM | 22.2
11 | O=C(O)c1ccccc1/C=N/N=C1c2ccccc2-c2ccccc21 | > 100 µM | 
12 | O=c1[nH]nc(Cc2ccccc2)n1/N=C/c1ccncc1 | > 100 µM | 
13 | CC(C)CCC1(CCN)C(=O)NC(=O)NC1=O | > 100 µM | 
14 | COc1ccc(N(C(=O)Nc2ccc(Cl)c(Cl)c2)C2c3cccn3C(=O)N2c2ccc(Cl)c(Cl)c2)cc1 (stereo unspecified) | > 100 µM | 
15 | C#CCN(Cc1ccc2nc(OC)c(OC)nc2c1)c1cc(OC)c(OC)c(OC)c1 | > 100 µM | 
16 | CC(=O)c1ccc(O)c(CN(C2CCCCC2)C2CCCCC2)c1O | > 100 µM | 
17 | CC1(C)[C@H]2CC[C@@]13C(=O)N1C(=O)O[C@@H]([C@H]1Cl)C(Cl)(COCc1ccccc1)C(=O)OCCO[C@H]3C2 (stereo partly specified) | > 100 µM | 
18 | C=CC(OCC)(OCC)OCC | > 100 µM | 
19 | COC(=O)C(/C(=N\O)C(=O)Nc1cccc(Cl)c1C)c1cnc2ccccc2n1 (stereo unspecified) | > 100 µM | 
20 | C=Cc1ccccc1C1(O)C=CC(OC)(OC)C=C1 | 23.6 µM | 
21 | CSc1n[nH]c(N)c1C(=O)Nc1ccccc1 | > 100 µM | 
22 | CCNC(=O)c1noc(-c2cc(C(C)C)c(O)cc2O)c1-c1ccc(CN2CCOCC2)cc1 | > 100 µM | 10.8
23 | O=c1cc(-c2ccccc2)oc2c(-c3cc(Cl)cc4c(=O)cc(-c5ccccc5)oc34)cc(Cl)cc12 | > 100 µM | 
24 | C/C(=N/NC(=O)C[N+](C)(C)C)C(CN(C)C)C(=O)Nc1ccccc1 (stereo unspecified) | > 100 µM | 
25 | Oc1[nH]c2ccccc2c1N=NC(=S)Nc1ccc(Cl)cc1 | > 100 µM | 
26 | CC(=O)N1CCC2(c3ccccc3N(C(C)=O)C2c2ccc(O)cc2)C1C(=O)O (stereo unspecified) | > 100 µM | 

Row | SMILES | TGI | GI50 [µM]
27 | COc1cc2ccc1OCc1cccc(n1)COc1ccc(cc1OC)C=Nc1ccc(cc1)N=C2 | > 100 µM | 
28 | COc1ccc(OC)c(Cn2cc3c(c2-c2ccccc2)CCc2cnoc2-3)c1 | > 100 µM | 8.43
29 | CCCCn1c(-c2ccc([N+](=O)[O-])cc2)cs/c1=N/N=C1\C(=O)Nc2ccc(Br)cc21 | > 100 µM | 
30 | O=C(N/N=C/c1ccc(Br)cc1)N/N=C/c1ccc(Br)cc1 | > 100 µM | 
31 | CC(C)(Oc1ccc(/C=C/C(=O)c2ccc(Cl)cc2)cc1)C(=O)Nc1c(Cl)cccc1Cl | > 100 µM | 
32 | CC12CCCC3(CC(=O)C(C)(C)C3C(=O)C1)C2 (stereo unspecified) | > 100 µM | 
33 | Cc1c2c(OCC3CCCCO3)nn(C)c(=O)c2c(C)n1-c1ccccc1 (stereo unspecified) | 33.1 µM | 
34 | NC(=S)NN/C=C(\C=Nc1ccccc1)[N+](=O)[O-] | > 100 µM | 
35 | O=c1cc(-c2cc(O)c(O)c(-c3c(O)cc4oc(-c5ccc(O)c(O)c5)cc(=O)c4c3O)c2)oc2cc(O)cc(O)c12 | > 25 µM | 
36 | CCOC(=O)C1SC(=Nc2ccc(Cl)cc2)N=C1C (stereo unspecified) | 44.6 µM | 
37 | OCc1ccc2c(c1)CC1(Cc3ccc(/C=N/O)cc3C1)C2 (stereo unspecified) | > 100 µM | 
38 | CN(C)CCNC(=O)c1cccc2nc(-c3ccccc3)oc12 | > 100 µM | 
39 | Cc1nc(C(N)=S)sc1C(=O)/C=C/c1c(O)ccc2ccccc12 | > 100 µM | 
40 | CCOC(=O)c1nnsc1NN | > 100 µM | 
41 | CCOC(=O)c1cn2c(n1)sc1cc(Cl)cc(Cl)c12 | > 100 µM | 
42 | FC(F)(F)c1cc(C2SCc3nc4ccccc4n32)cc(C(F)(F)F)c1 (stereo unspecified) | > 100 µM | 
43 | O=c1[nH]c(=O)n(C2CC(O)C(CO)O2)cc1OCc1ccccc1 (stereo unspecified) | > 100 µM | 
44 | C=C1c2nc3ccccc3n2C=C(c2ccc(Cl)cc2)N1c1ccc(OC)cc1 | > 100 µM | 
45 | CCOC(=O)C#Cc1ccccc1 | 36.3 µM | 
46 | CO[C@]12C[C@H](CNC(=O)c3ccc[nH]3)O[C@H]1NC(=O)N2 | > 100 µM | 
47 | C(=N\Nc1nnn(Cc2ccccc2)n1)/c1ccccc1 | > 100 µM | > 100
48 | CC(=O)c1ccc2c(c1)CC1(C2)Cc2ccccc2C1=O (stereo unspecified) | > 100 µM | 
49 | O=C1CSC2=NC3=C(COC/C3=C\c3ccc(Br)cc3)C(c3ccc(Br)cc3)N12 (stereo unspecified) | > 100 µM | 
50 | Cc1cnc2c(c1)C(=O)C1=C(C2=O)C2OC(=O)CC2OC1(C)C (stereo unspecified) | 5.4 µM | 
51 | c1c2c(cc(-n3nnc4c3CCCCCC4)c1-n1nnc3c1CCCCCC3)CCCCCC2 | 25.5 µM | 
52 | CCOP(=O)(/C=C\n1ccc(N)nc1=O)OCC | > 100 µM | 

Row | SMILES | TGI | GI50 [µM]
53 | C=C(C)C1C/C=C(/C)CCCC2(CCC3=C(CC(C(=C)C)C/C=C(/C)CCC3)O2)C(=O)C1 (stereo unspecified) | > 100 µM | 
54 | COc1ccc(C(=O)NCCN(C)C)c2nc3ccccc3nc12 | 25.7 µM | 
55 | O=c1cc(N2CCCC2)[nH]c(=O)n1-c1ccccc1 | > 100 µM | 
56 | CCOC(=O)C(NC(=O)c1nc[nH]c1[N+](=O)[O-])C(C)C (stereo unspecified) | > 100 µM | 
57 | c1c[nH]c(CN2CCOCC2)n1 | > 100 µM | 
58 | O=C(N/N=C/c1ccccc1O)c1ccccc1 | > 100 µM | 1.77
59 | COc1ccc2[nH]c3c(c2c1)[C@H](C)C[C@@H]1C(=O)N(c2ccccc2)C(=O)[C@H]31 | > 100 µM | 
60 | Cc1cc(N(CCC#N)CCC#N)ccc1/C=C(\NC(=O)/C=C/c1ccccc1)C(=O)NN | > 100 µM | 
61 | CN(C)C(=O)O[C@H]1CN[C@H](C#Cc2cc3ncnc(Nc4ccc(OCc5cccc(F)c5)c(Cl)c4)c3s2)C1 | > 25 µM | 3.67
62 | CCN(C(=O)/C=C/c1ccco1)c1ccccc1 | > 100 µM | 
63 | COC(=O)C1(C)Cc2cc(OC(C)=O)c(OC(C)=O)cc2N1 (stereo unspecified) | > 93.8 µM | > 54.5
64 | C=C(CN(C)C)C(=O)c1ccccc1[N+](=O)[O-] | > 100 µM and 35.5 µM | 19.4
65 | COC(=O)C1(Cc2ccc3c(c2)CCC3)Cc2ccccc2C1 | > 100 µM | 
66 | CCOC(=O)/C(C#N)=C\C=C(/Cl)c1ccc(Cl)cc1 | 45.3 µM | 23.4
67 | C[C@]12CC[C@@H]3c4cc(I)c(O)cc4CC[C@H]3[C@@H]1CC[C@@H]2O | 18.6 µM | 
68 | CCC(=O)Nc1nc2c(ncn2C2OC(COC(=O)CC)C(OC(=O)CC)C2OC(=O)CC)c(=O)[nH]1 (stereo unspecified) | > 100 µM | 
69 | Cc1c(C(=O)O)oc2ccc([N+](=O)[O-])cc12 | > 100 µM | 
70 | COc1cc2c(cc1Cc1c(F)cccc1Cl)nc(-c1c(F)cccc1Cl)n2Cc1c(F)cccc1Cl | > 100 µM | 
71 | COCCOCCOC1=CC(=O)c2c(O)ccc(O)c2C1=O | 2.94 µM | 
72 | CCC(C(=O)C(=O)OC)P1(=O)OC(C)(C)CN1C(C)(C)C (stereo unspecified) | > 100 µM | 
73 | N#Cc1nc(NC(=O)c2ccccc2C(=O)O)c(C#N)[nH]1 | > 100 µM | 
74 | CC(C)OC(=O)OCSc1ccccc1N=Cc1cccc([N+](=O)[O-])c1 | > 10 µM | 
75 | COC(=O)/C(C#N)=C(/NCCN)Nc1ccccc1 | > 100 µM | 
76 | CSC1=Nc2ccccc2N=C(c2ccc(Cl)cc2)C1 | > 100 µM | 
77 | N#Cc1ccc(NC(=O)C(CC(=O)OCc2ccccc2)NC(=O)OCc2ccccc2)cc1 (stereo unspecified) | > 100 µM | > 100
78 | C=C1C(=O)O[C@H]2[C@H]1CC/C(C=Nc1c(N)cc(C(F)(F)F)cc1Br)=C\CC[C@@]1(C)O[C@@H]21 | 12.7 µM | 2.98

Row | SMILES | TGI | GI50 [µM]
79 | CC(C)(C)c1cc(C=C(C#N)C#N)cc(C(C)(C)C)c1O | 25.6 µM and 77.9 µM | 
80 | O=C(O)c1ccc(C2C(=O)N[C@@H]3CCC[C@H]23)cc1 (stereo partly specified) | > 100 µM | 
81 | OC(c1cc2ccc(C(F)(F)F)cc2c2cc(C(F)(F)F)ccc12)C1CCCCN1 (stereo unspecified) | 3.44 µM | 
82 | O=c1cc(/C=C/c2ccccc2)[nH]c2cc3c(cc12)OCO3 | 25.5 µM | 
83 | CN(C)c1ccc(-c2ccc(-c3ccc(C(=N)N)cc3)s2)cc1 | 2.37 µM | 1.05
84 | COc1ccc(CN2CCC/C=C/CC(Cl)(Cl)C2=O)cc1 | > 100 µM | 
85 | O=C(O)[C@H](c1ccccc1)[C@@H](C(=O)O)c1ccccc1 | > 100 µM | 
86 | O=C(/C=C/c1ccccc1)CC(=O)CCC(=O)Nc1ccc(Cl)cc1 | > 100 µM | 
87 | c1ccc2[nH]c(-c3ccc(Nc4nc(N5CCCCC5)nc(N5CCOCC5)n4)cc3)nc2c1 | > 100 µM | 4.72
88 | N/N=C1\C(=O)N(CCc2ccccc2)C(=O)C1C(=O)NCCc1ccccc1 (stereo unspecified) | > 100 µM | 
89 | C[N+](C)(C)CC1CCCCC1O (stereo unspecified) | > 100 µM | 
90 | CN(C)CC1CCC(CN(C)C)C1=O (stereo unspecified) | 35.4 µM | 
91 | Cc1ccccc1NC(=O)C1C(=O)N(c2ccccc2C)C(=O)/C1=N\NC(N)=S (stereo unspecified) | > 100 µM | 
92 | C1=C\SS/C=C\SS/1 | > 100 µM | 
93 | COC(=O)c1cc(C#N)[nH]c1-c1cc(Br)cs1 | 47.5 µM | 
94 | CN(C)CCC(=O)/C=C\c1ccccc1 | > 100 µM | 
95 | CN1/C(=C\C=C\C2=[N+](C)c3ccccc3C2(C)C)C(C)(C)c2ccccc21 | 3.14 µM | 0.255
96 | C=C(CNCCc1ccc(O)cc1)[C@@H]1CC[C@]2(COC3CCCCO3)CC[C@]3(C)[C@H](CC[C@@H]4[C@@]5(C)CCC(NCCO)C(C)(C)[C@@H]5CC[C@]43C)[C@@H]12 (stereo partly specified) | 2.61 µM | 1.32
97 | COc1ccc(C(=O)c2ccc([As]=O)cc2)cc1 (stereo unspecified) | 0.268 µM | 0.131
98 | COc1ccc(COCC[C@H](C)OC2OC(CO[Si](C)(C)C(C)(C)C)C(OC(=O)CCCN=[N+]=[N-])C(OC(=O)CCCN=[N+]=[N-])C2OC(=O)CCCN=[N+]=[N-])cc1 (stereo partly specified) | > 100 µM | 
99 | CC(=O)OCC1OC(N2C(=O)C(=O)c3ccccc32)C(OC(C)=O)C(OC(C)=O)C1OC(C)=O (stereo unspecified) | > 100 µM | 
100 | O=C(c1ccncc1)C1C(=O)c2ccccc2C1C1(O)c2ccccc2CC1C(O)c1ccncc1 (stereo unspecified) | > 100 µM | 
101 | C=C1C[C@@H]2CC[C@@]34C[C@H]5O[C@H]6[C@@H](O3)[C@H]3O[C@H](CC[C@@H]3O[C@H]6[C@@H]5O4)CC(=O)C[C@@H]3[C@@H](OC)[C@@H](C[C@H](O)CN)O[C@H]3C[C@H]3O[C@@H](CC[C@@H]1O2)C[C@@H](C)C3=C | > 100 µM | < 0.01
102 | O=C(Nc1ccc(Cl)c(Cl)c1)NS(=O)(=O)c1cnccc1Oc1ccc(F)cc1 | 73.5 µM | 3.53

— PubChem BioAssay (NCI)
